Each structure is given as a SMILES string. Out of some 310,000 compounds screened, about 2,200 (0.71%) showed an effect of 50% or more. The effect is printed as a negative number. The list shows a part of the results.

Here are results for 88 compounds from PMC4336329 (PLoS ONE, 2015).

Chain of human ether-à-go-go-related gene (hERG) potassium channel (Q12809 whole entry, looked up): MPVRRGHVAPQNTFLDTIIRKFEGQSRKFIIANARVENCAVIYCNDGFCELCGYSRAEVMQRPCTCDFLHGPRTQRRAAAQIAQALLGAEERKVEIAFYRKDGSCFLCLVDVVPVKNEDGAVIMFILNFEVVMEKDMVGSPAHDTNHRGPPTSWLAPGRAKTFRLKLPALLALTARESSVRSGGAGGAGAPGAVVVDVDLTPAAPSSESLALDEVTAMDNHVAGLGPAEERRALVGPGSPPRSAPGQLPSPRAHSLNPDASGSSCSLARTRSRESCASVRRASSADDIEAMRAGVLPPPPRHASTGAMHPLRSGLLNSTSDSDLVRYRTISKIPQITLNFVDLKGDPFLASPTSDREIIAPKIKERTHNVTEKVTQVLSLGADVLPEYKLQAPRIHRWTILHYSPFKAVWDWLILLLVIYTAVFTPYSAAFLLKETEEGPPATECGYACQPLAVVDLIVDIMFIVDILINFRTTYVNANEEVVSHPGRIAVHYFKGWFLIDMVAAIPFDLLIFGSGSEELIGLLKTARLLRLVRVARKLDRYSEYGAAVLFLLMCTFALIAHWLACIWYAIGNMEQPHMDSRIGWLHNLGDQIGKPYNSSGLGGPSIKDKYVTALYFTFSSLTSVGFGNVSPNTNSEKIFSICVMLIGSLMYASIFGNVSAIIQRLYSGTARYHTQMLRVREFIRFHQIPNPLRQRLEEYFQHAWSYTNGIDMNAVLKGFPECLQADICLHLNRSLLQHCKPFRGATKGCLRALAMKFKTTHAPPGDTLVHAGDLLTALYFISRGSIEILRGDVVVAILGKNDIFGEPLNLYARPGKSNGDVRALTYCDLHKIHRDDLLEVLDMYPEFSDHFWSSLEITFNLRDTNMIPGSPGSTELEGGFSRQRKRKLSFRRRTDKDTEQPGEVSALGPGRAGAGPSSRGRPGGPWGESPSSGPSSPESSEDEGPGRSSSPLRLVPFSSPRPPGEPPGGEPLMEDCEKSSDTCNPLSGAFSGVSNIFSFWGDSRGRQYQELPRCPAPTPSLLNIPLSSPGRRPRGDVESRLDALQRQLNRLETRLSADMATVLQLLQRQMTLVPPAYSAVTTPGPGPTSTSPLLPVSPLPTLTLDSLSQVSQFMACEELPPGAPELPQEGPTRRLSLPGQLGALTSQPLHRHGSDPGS

The assay has as its target human ether-à-go-go-related gene (hERG) potassium channel (human, UniProt Q12809). Briefly: primary screen, population patch clamp on CHO cells stably expressing hERG.
On to `Cc1ccc2[nH]c(=O)c(NC(N)=S)nc2c1`, for which the “hERG current change (%, negative = inhibition) at 1uM” value is recorded as -4.32%.
In the case of `COc1ccc(OCC(=O)Nc2ccc(S(=O)(=O)Nc3cc(C)nc(C)n3)cc2)cc1`, the “hERG current change (%, negative = inhibition) at 1uM” value is 16.5%.
Consider `CN(C)c1ccc(N/C=C/C(=O)C(F)(F)F)cc1`, for which the “hERG current change (%, negative = inhibition) at 1uM” value was 17.7%.
With `CCOc1ccc(NC(=O)c2cccc3ccccc23)cc1` the figure was 9.75%.
Turning to `CCC(C)(C)NC(=O)C(c1ccc(F)cc1)N(Cc1ccccc1)C(=O)c1cnccn1` (stereo not shown), the “hERG current change (%, negative = inhibition) at 1uM” value was -5.26%.
In the case of `Cc1ccc(C(=O)Nc2ccc(N3CCN(C)CC3)cc2)c(Cl)c1`, the “hERG current change (%, negative = inhibition) at 1uM” value came to 10.6%.
As to `COc1ccccc1CNS(=O)(=O)c1ccc2c(c1)oc(=O)n2C`, the “hERG current change (%, negative = inhibition) at 1uM” value is reported as -8.05%.
Regarding `O=[N+]([O-])c1ccc(NCCCN2CCOCC2)c2ncccc12`, the “hERG current change (%, negative = inhibition) at 1uM” value is 21.3%.
Consider `CC1(C)Cc2nc3sc4c(N(CCO)CCO)ncnc4c3cc2CO1`, for which the “hERG current change (%, negative = inhibition) at 1uM” value is on record as 10.4%.
With `CCC(=O)c1ccc(NC(C)=O)cc1O`, the “hERG current change (%, negative = inhibition) at 1uM” value is listed as 10.6%.
For the compound `CCOc1ccc(C(C)=O)cc1CN1C(=O)NC(C)(C2CC2)C1=O` (stereo not shown), the “hERG current change (%, negative = inhibition) at 1uM” value was found to be 8.71%.
For `CCOC(=O)c1c(NC(=O)CSc2nc3ccccc3[nH]2)sc2c1CC(C)(C)NC2(C)C` the value was -0.588%.
Consider `CCC(=O)N1CCN(c2nc(-c3ccccc3)c3c(c2C#N)CCCC3)CC1`, for which the “hERG current change (%, negative = inhibition) at 1uM” value was 13.8%.
Take `Cc1cc(C(F)F)nn1CC(=O)NC1C(=O)N2C(C(=O)O)=C(CSc3nnnn3C)CSC12` (stereo not shown): the “hERG current change (%, negative = inhibition) at 1uM” value is reported as -6.06%.
Consider `CC1(c2cccc([N+](=O)[O-])c2)CC(C)(C)N(C(=O)c2ccccc2)c2ccccc21` (stereo not shown), for which the “hERG current change (%, negative = inhibition) at 1uM” value is 8.47%.
Consider `CCn1cc(C(=O)NCCc2ccccc2C)c(=O)c2ccc(C)nc21`, for which the “hERG current change (%, negative = inhibition) at 1uM” value is 15.5%.
For the compound `O=C(O)C1C2CC3C(OC(=O)C31)C2Cl` (stereo not shown), the “hERG current change (%, negative = inhibition) at 1uM” value was found to be 10.1%.
With `COc1ccc(C(=O)N2CCCC2(C#N)c2ccccc2)cc1[N+](=O)[O-]` (stereo not shown) the figure was 1.31%; with `COCc1ccc(CN2CCCC(CCC(=O)NCc3ccc(C)o3)C2)o1` (stereo not shown), -9.05%.
For `CN(c1ccccc1)S(=O)(=O)c1cccc(C(=O)N2CCN(c3ccccn3)CC2)c1`, the “hERG current change (%, negative = inhibition) at 1uM” value is 0.548%.
Consider `CCc1ccccc1NC(=O)c1ccc(-c2csc(C)n2)cc1`, for which the “hERG current change (%, negative = inhibition) at 1uM” value came to 7.98%.
With `Cc1noc(C)c1C(=O)Nc1nc(C23CC4CC(CC(C4)C2)C3)cs1`, the “hERG current change (%, negative = inhibition) at 1uM” value is reported as 7.46%.
Consider `CC1=NCCN1S(=O)(=O)c1c(C(C)C)cc(C(C)C)cc1C(C)C`, for which the “hERG current change (%, negative = inhibition) at 1uM” value is on record as 14.6%.
Consider `CN(C)c1ccc(/C=C2/C=C(c3ccc4c(c3)CCCC4)OC2=O)cc1`, for which the “hERG current change (%, negative = inhibition) at 1uM” value worked out at 11.3%.
Consider `Cc1ccc(NC(=O)CSc2nnc(Cn3cnc4ccccc43)o2)cc1`, for which the “hERG current change (%, negative = inhibition) at 1uM” value is 5.35%.
Regarding `COc1ccccc1C(=O)N/C(=C\c1ccc(Br)cc1)C(=O)NCC(=O)O`, the “hERG current change (%, negative = inhibition) at 1uM” value was determined as 0.366%.
As to `COc1ccc(N2CCN(CC(O)COc3ccccc3[N+](=O)[O-])CC2)cc1.Cl` (stereo not shown), the “hERG current change (%, negative = inhibition) at 1uM” value is given as -13.9%.
Take `COc1cccc(C(=O)NCCSCc2c(F)cccc2Cl)c1`: the “hERG current change (%, negative = inhibition) at 1uM” value is 9.61%.
In the case of `COc1ccc(CCNC(=O)N2c3ccccc3Sc3ccccc32)cc1`, the “hERG current change (%, negative = inhibition) at 1uM” value was found to be 10.9%.
Consider `Cc1cccc(C(=O)Oc2ccc(/C=N/NC(=O)Cc3ccc([N+](=O)[O-])cc3)cc2)c1`, for which the “hERG current change (%, negative = inhibition) at 1uM” value was determined as 9.89%.
On to `O=C(Cc1ccccc1)NNC(=O)c1cccs1`, for which the “hERG current change (%, negative = inhibition) at 1uM” value is on record as 6.89%.
Turning to `Cc1ccc2c(c1)c1c3n2CCNC3CCC1.Cl` (stereo not shown), the “hERG current change (%, negative = inhibition) at 1uM” value was found to be 18.8%.
Consider `CCOc1ccc(CNC(=O)C2CCC(=O)N2C2CCCC2)cc1OC` (stereo not shown), for which the “hERG current change (%, negative = inhibition) at 1uM” value was found to be 5.53%.
Take `CSc1[nH]c(=O)c(C(=O)O)cc1C#N`: the “hERG current change (%, negative = inhibition) at 1uM” value is listed as 13%.
For the compound `Nc1cccc([N+](=O)[O-])c1`, the “hERG current change (%, negative = inhibition) at 1uM” value came to 5.03%.
With `O=C(Nc1ccc(Cl)cc1)Nc1ccon1` the figure was 12.9%; with `CN(C(=O)c1ccccc1C(=O)OCC(=O)Nc1ccccc1)c1ccccc1`, 11%; with `CC(=O)C1=C(O)C(=O)N(Cc2ccco2)C1c1ccccc1` (stereo not shown), 13.3%.
For the compound `Cc1ccc(Cn2ncc3c(NCCN(C)C)ncnc32)cc1`, the “hERG current change (%, negative = inhibition) at 1uM” value was 1.2%.
For `CNC(=O)C12CC3CC(C1)CC(c1ccc(C)cc1)(C3)C2` the value was 10%; for `CCOC(=O)c1c(C)[nH]c(C(=O)COC(=O)CCC(=O)c2ccc3c(c2)OCCO3)c1C`, -2.46%.
For the compound `CCOC(=O)C1=C(C)N=c2s/c(=C\c3cccc(OCC(=O)O)c3)c(=O)n2C1c1ccccc1` (stereo not shown), the “hERG current change (%, negative = inhibition) at 1uM” value was determined as 7.53%.
With `C/C(=N\NC(=O)CSc1nc(C)[nH]c1[N+](=O)[O-])c1ccc(F)cc1` the figure was 9.08%; with `COCCNC(=O)C(c1ccc(F)cc1)N(C(=O)CCC(=O)Nc1ccccn1)c1cccc(C)c1` (stereo not shown), 12.8%.
Consider `CCOC(OCC)P(=O)(C(C)C)C(C)C`, for which the “hERG current change (%, negative = inhibition) at 1uM” value was 4.5%.
For the compound `Cc1nnc(SCC2=C(C(=O)O)N3C(=O)C(NC(=O)C(C)n4nc(C(F)(F)F)cc4C)C3SC2)s1` (stereo not shown), the “hERG current change (%, negative = inhibition) at 1uM” value is 14%.
`CCC(=O)c1ccc(/C=C/c2nc3ccccc3n2C)o1`: the “hERG current change (%, negative = inhibition) at 1uM” value is listed as 2.57%.
Take `C=CCn1c(SCC(=O)NNC(=O)Nc2cccc(Cl)c2)nnc1-c1ccccc1`: the “hERG current change (%, negative = inhibition) at 1uM” value came to 6.04%.
With `c1ccc(-c2ccc(OCCOCCn3cncn3)cc2)cc1` the figure was 6.91%.
Turning to `Cc1ccc(S(=O)(=O)CCc2nc3ccccc3s2)cc1`, the “hERG current change (%, negative = inhibition) at 1uM” value worked out at 8.2%.
Take `O=C(O)C(=O)O.O=C(c1cccc(F)c1)N1CCN(Cc2c[nH]c3ccccc23)CC1`: the “hERG current change (%, negative = inhibition) at 1uM” value was found to be 3.32%.
Turning to `COc1ccc(S(=O)(=O)Nc2ccc(N3CCOCC3)cc2)cc1[N+](=O)[O-]`, the “hERG current change (%, negative = inhibition) at 1uM” value was found to be 11.7%.
In the case of `COc1ccc(N2CC(C(=O)N[C@@H](CC(C)C)C(=O)NC3CCCCC3)CC2=O)cc1` (stereo partly shown), the “hERG current change (%, negative = inhibition) at 1uM” value is 13.6%.
In the case of `FC(F)(F)c1cccc(CN2CCCCCC2)c1`, the “hERG current change (%, negative = inhibition) at 1uM” value was determined as 1.95%.
For the compound `CC1=C(C)C(=O)N(c2ccccn2)C1=O`, the “hERG current change (%, negative = inhibition) at 1uM” value worked out at 11.4%.
As to `O=C(CSc1ncn[nH]1)Nc1cc(S(=O)(=O)N2CCCC2)ccc1Cl`, the “hERG current change (%, negative = inhibition) at 1uM” value is recorded as -1.19%.
With `O=C(c1ccc(COc2c(F)c(F)c(F)c(F)c2F)o1)N1CCOCC1` the figure was -0.4%; with `Cc1cc(C)c2nc(/N=C(\N)NC(=O)Nc3ccccc3)nc(C)c2c1`, 3.38%; with `CCn1c(CCc2nc3ccccc3[nH]2)n[nH]c1=S`, 33.6%.
With `COc1ccc(N(C(=O)C(C)C)S(=O)(=O)c2ccc3ccccc3c2)cc1` the figure was 7.49%.
For the compound `O=C(COC(=O)CCc1nc2ccccc2s1)NC(=O)NCc1ccco1`, the “hERG current change (%, negative = inhibition) at 1uM” value is on record as -3.19%.
Consider `Cc1nc2ccccc2c2c1C(=O)N(c1ccc(C(=O)O)cc1)C2=O`, for which the “hERG current change (%, negative = inhibition) at 1uM” value is reported as 7.18%.
For `Cc1c(C2Nc3ccccc3C(=O)N2O)cnn1C` (stereo not shown), the “hERG current change (%, negative = inhibition) at 1uM” value is on record as 6.1%.
For the compound `O=C(COc1cc(O)c2c(=O)cc(-c3ccccc3)oc2c1)c1ccccc1`, the “hERG current change (%, negative = inhibition) at 1uM” value is on record as 7.59%.
Take `CC(C)Cn1c(-c2csc3ccccc23)n[nH]c1=S`: the “hERG current change (%, negative = inhibition) at 1uM” value is on record as 4.43%.
For `O=C(C1CCN(S(=O)(=O)c2ccc3ccccc3c2)CC1)N1CCN(c2ncccn2)CC1` the value was 4.33%; for `CCOC(=O)N1CCC(NC(=O)C2CCCN(S(=O)(=O)c3ccc4c(c3)oc(=O)n4C)C2)CC1` (stereo not shown), 11.3%; for `O=C(COc1ccccc1[N+](=O)[O-])Nc1ccc(N2CCN(C(=O)c3cccs3)CC2)cc1`, 3.93%.
On to `CN(C)S(=O)(=O)c1ccc2c(c1)c(=O)c(C(=O)N1CCOCC1)cn2C`, for which the “hERG current change (%, negative = inhibition) at 1uM” value turned out to be 7.71%.
With `Fc1ccc(COc2cccc(-c3n[nH]c(=S)o3)c2)cc1` the figure was 9.67%; with `COc1ccc(C)c(S(=O)(=O)Nc2ccc(OCC(=O)O)cc2)c1`, 15.5%; with `CCOC(=O)CSc1nnc2c(n1)C1(C)CCC2C1(C)C` (stereo not shown), 1.95%.
For `O=C(O)CCC(=O)NC(c1ccccc1)c1ccccc1` the value was 6.14%; for `CCOC(=O)CN(C(=O)CSc1nnc(CNc2ccc(F)cc2)n1CC)c1ccc(F)cc1`, -6.17%; for `CCCC(=O)Nc1ccc(NCc2ccc(C)s2)cc1`, 7.57%.
For the compound `CCCCn1c(N)c(N(CC(C)C)C(=O)C(C)SCc2nc3sc(C)c(C)c3c(=O)[nH]2)c(=O)[nH]c1=O` (stereo not shown), the “hERG current change (%, negative = inhibition) at 1uM” value worked out at 13.5%.
`COc1cccc(N2C(=O)Nc3ccc(Br)cc3C2(O)C(=O)NCCCOC(C)C)c1` (stereo not shown): the “hERG current change (%, negative = inhibition) at 1uM” value came out at 16.8%.
For `O=C(Nc1ncccn1)c1cccs1`, the “hERG current change (%, negative = inhibition) at 1uM” value came out at 14%.
With `COc1ccc(S(=O)(=O)N(c2onc(C)c2Cl)S(=O)(=O)c2ccc(OC)cc2)cc1` the figure was 15.1%; with `COc1ccccc1CNC(=O)CCNS(=O)(=O)c1cccc2nonc12`, 14.1%; with `Cc1cccc(NC(=S)N(CCc2ccncc2)C(C)C)c1C`, 6.18%.
Consider `CCc1ccc(NC(=S)Nn2cnnc2)cc1`, for which the “hERG current change (%, negative = inhibition) at 1uM” value amounted to 12.6%.
Regarding `NC(=O)COC(=O)CC(NC(N)=O)c1ccc(Cl)cc1` (stereo not shown), the “hERG current change (%, negative = inhibition) at 1uM” value is 16%.
Turning to `OC(COc1ccc(F)cc1Cl)CN1CCc2ccccc2C1` (stereo not shown), the “hERG current change (%, negative = inhibition) at 1uM” value is -10.6%.
In the case of `O=C(NCCc1ccccc1)c1ccc(CS(=O)(=O)c2ccc(Br)cc2)o1`, the “hERG current change (%, negative = inhibition) at 1uM” value stood at 10.1%.
In the case of `CCOC(=O)c1c(NC(=O)CC)sc2c1CCN(Cc1ccccc1)C2.Cl`, the “hERG current change (%, negative = inhibition) at 1uM” value came out at 11.9%.
Regarding `Cc1c(C(=O)Nc2ccccc2Cl)oc2ccc(S(=O)(=O)N3CCC4(CC3)OCCO4)cc12`, the “hERG current change (%, negative = inhibition) at 1uM” value came out at 4.25%.
Consider `CCN(C(=O)CN1C(=O)S/C(=C\c2cccc(OC)c2)C1=O)C1CCS(=O)(=O)C1` (stereo not shown), for which the “hERG current change (%, negative = inhibition) at 1uM” value is -3.31%.
